Hit rate of the full screen: of about 150,000 compounds, about 540 (0.36%) showed an effect of 50% or more. The list shows a part of the results.
Tested on: Plasmodium falciparum
Assay: Primary screen in NF54 nanoGlo assay, in single point, at 2uM, 72h; a lower Z score goes with more inhibition
Type: functional, Erythrocyte
Details: timepoint 72 hour

Row | SMILES | % Inhibition [%] | Z score
1 | Cc1cc(C(=O)NCc2noc(C)n2)[nH]n1 | -9 | 1.44
2 | O=C(c1nc2ccccc2s1)N1CC[C@H](c2ccc3c(c2)OCO3)C1 | 0 | 0.05
3 | C[C@H]1CCCN(CCCNC(=O)c2ccc(N3CCCCS3(=O)=O)cc2)C1 | -13 | 1.78
4 | CC(C)Oc1cccc(CC(=O)N2CC[C@H](CO)C[C@@H]2C)c1 | -2 | 0.25
5 | c1ccc2ncc(-c3cncnc3)cc2c1 | -4 | 0.83
6 | Cc1ccc2oc(-c3nc([C@H]4CCOC4)no3)cc2n1 | 15 | -1.8
7 | O=C(c1cnsn1)N1CCC(OCC2CCCC2)CC1 | -2 | 0.47
8 | O=C(C[C@H]1CCOC1)NCc1cscn1 | 5 | -0.77
9 | O=C(O)CC1CN(C(=O)C2CC2c2ccccc2OC(F)(F)F)CCO1 (configuration not stated) | 2 | -0.22
10 | COc1ccc(CCNS(=O)(=O)c2c3c(c(OC)c4c2OCO4)C(=O)N(C)CC3)cc1OC | -10 | 1.26
11 | CN(CCCNC(=O)c1nccnc1-c1nc2ccccc2s1)Cc1ccccc1 | -10 | 1.15
12 | Cc1cc(C(=O)N2CCC[C@H](c3nccn3CC3CC3)C2)nc(C)n1 | 1 | -0.15
13 | CC1=C(CCN2CCOC[C@@H]2CC(=O)N2CCCOCC2)C(C)(C)CCC1 | 2 | -0.3
14 | CN(CC(=O)OCc1nnc(-c2ccccc2)o1)S(=O)(=O)c1cccnc1 | -14 | 2.17
15 | O=C(NC[C@H]1CCCCN1CCO)c1cncc(F)c1 | -8 | 1.03
16 | CCc1nc(-c2cc(NC(=O)c3ccccc3)c(C)s2)no1 | -15 | 1.5
17 | Cc1ccc(OCc2cc(C(=O)NCc3csc(N)n3)no2)cn1 | -5 | 0.72
18 | COc1ccc2oc(-c3ccc(CNC(=O)c4ccc(C)cc4)cc3)nc2c1 | 38 | -1.21
19 | COc1ccccc1CNC(=O)c1ccc(-c2c(-c3ccc(C)cc3)ncn2C2CCCC2)o1 | 14 | -2.43
20 | CN(C(=O)c1ncccc1Br)c1ccc(Cl)cn1 | -5 | 0.8
21 | CN(C)C(=O)N1CC[C@@H]2CN(C(=O)CCn3nnc4ccccc43)C[C@@H]21 | -29 | 2.67
22 | CN(CC1(N(C)C)CCC1)C(=O)NCc1ccc(C#N)cc1F | 10 | -1.29

Row | SMILES | % Inhibition [%] | Z score
23 | O=S(=O)(c1ccc2c(c1)CCC2)N1CCC(CN2CCC3(CCCCO3)CC2)CC1 | -18 | 3.65
24 | Cn1ncnc1N1C(=O)N[C@](C)(c2ccc(Cl)c(Cl)c2)C1=O | -7 | 0.74
25 | CCc1noc(CC)c1CN[C@@H](C)CC(=O)Nc1cccc(C)c1C | -5 | 0.81
26 | Cc1ccc2cc3c(nc2c1)N(C(=O)COc1ccccc1)CC3 | -5 | 0.87
27 | COc1ccc(-c2nnc(C(C)=O)n2Nc2ccc(S(N)(=O)=O)cc2)cc1 | -19 | 2.22
28 | Cc1ccc(NC2=NC(N)=NC3(CCCC3)N2)c(C)c1 | -16 | 1.99
29 | COc1ccc(CCNc2cc([C@H]3CCOC3)nc(N)n2)cc1OC | -10 | 1.27
30 | CCCn1cc(CNC(=O)N(C)Cc2cnn(C(C)C)c2)cn1 | -15 | 1.69
31 | COc1ccc(NC(=O)C2CC(=O)C2)c(Br)c1 | 11 | -1.42
32 | CC1CC(CCNc2ccc(S(N)(=O)=O)cc2C(F)(F)F)CCO1 (configuration not stated) | -4 | 0.59
33 | CS(=O)(=O)N1CC(N2CC(F)(F)C[C@H]2C(=O)N2CCC(Cc3ccccc3)CC2)C1 | 4 | -0.68
34 | NCC(=O)N1CCc2[nH]nc(C(c3ccccc3)c3ccccc3)c2C1 | -15 | 2.92
35 | Cc1ccc(N2C[C@@H](c3nc(-c4cc5c(C)nn(-c6ccccc6)c5s4)no3)CC2=O)cc1 | 29 | -3.35
36 | Cc1nccc(O[C@H]2CCN(C(=O)Cn3cccn3)C2)n1 | -2 | 0.25
37 | CO[C@H]1COCC[C@@H]1NC(=O)Cc1ccc(F)c(F)c1 | -5 | 0.42
38 | COC(=O)c1sc(NCCNS(C)(=O)=O)nc1C | -1 | 0.13
39 | O=C(Cn1cc(C(F)(F)F)ccc1=O)c1ccc(N2CCCC2=O)cc1 | -12 | 1.67
40 | C=CCNC(=NC1CC1)NCCc1cc(F)cc2c1OCOC2 | 1 | -0.15
41 | O=C(NC1CCN(Cc2ccccc2)CC1)c1nccnc1-c1nc2ccccc2s1 | 13 | -1.57
42 | Cc1cccc2nc(NCCn3ccnc3C(C)C)oc12 | 5 | -0.89
43 | Cc1cc2nc(C(=O)N3CCc4c([nH]n(CCO)c4=O)C3)cc(C)n2n1 | -9 | 1.34
44 | Cc1c(CCNS(=O)(=O)c2cnc3c(cnn3C)c2)cnn1C | 7 | -1.2

Row | SMILES | % Inhibition [%] | Z score
45 | CCN(CCS(C)(=O)=O)C(=O)NCC1(C)CCCCCC1 | -16 | 1.38
46 | Cc1cccnc1CN(Cc1ccccc1)C(=O)[C@@H]1CC(C(C)C)=NO1 | -15 | 1.73
47 | O=C(c1cc(Cl)cc(Cl)c1)N1CCC(c2nc(-c3ccc(Cl)cc3F)no2)CC1 | 5 | -0.66
48 | OCc1ccccc1CNCc1c[nH]nc1-c1cccnc1 | -1 | 0.11
49 | CN1CCCC[C@@H]1CNc1nc(CCc2ccccc2)nc2c1cnn2C | 2 | -0.39
50 | N#Cc1cc(CN2CC[C@H](NC(=O)c3cccnc3)[C@@H](O)C2)c[nH]1 | 0 | 0.03
51 | O[C@H]1CN(CCN2CCN(c3ccccc3)CC2)C[C@@H]1N1CCOCC1 | -3 | 0.29
52 | Cc1nc[nH]c1CN1CCC(c2[nH]ncc2-c2cccc(F)c2)CC1 | -8 | 1.17
53 | O=C(CCOCC(F)(F)F)N1CCN(C2CCCC2O)CC1 (configuration not stated) | 4 | -0.56
54 | CN(C)c1ccc(NS(=O)(=O)c2cnn(C)c2)c(C(F)(F)F)c1 | 1 | -0.2
55 | COc1ccc(CN(C(=O)C2OCCC2C)c2nccs2)cc1 (configuration not stated) | 6 | -0.73
56 | O[C@H]1C[C@H]2CC[C@@H](C1)N2Cc1cccc2c1oc1ccccc12 | 15 | -2.42
57 | CCCCS(=O)(=O)N1CCC(C(=O)NC(C)(C)C(=O)NCC2CCCC2)CC1 | -10 | 1.55
58 | Cc1csc([C@H](C)NC(=O)c2ncc(F)cc2F)n1 | -5 | 0.86
59 | NC(=O)N1CCC[C@H](C(=O)N2CCC(F)(F)CC2)C1 | -1 | 0.2
60 | O=C1CC[C@@H](C(=O)NCc2ccc(N3CCCC3=O)cc2)NC(=O)N1 | -3 | 0.54
61 | CC(C)(C)c1nnc(CNC(=O)[C@H]2CCC(=O)N2)s1 | 0 | 0.01
62 | C[C@H]1COc2ccc(-c3cccnc3)cc2CN1C(=O)C1CCOCC1 | -7 | 0.83
63 | COc1ccccc1CC(=O)N[C@@H](C)c1n[nH]c(C)n1 | -7 | 0.88
64 | O=C(N[C@H]1CCCc2c1cnn2-c1ccccc1F)c1ccccc1C(F)(F)F | 1 | -0.16
65 | C[C@H](NCCN1N=C(c2ccccc2)CCC1=O)C(=O)NC1CCCC1 | 0 | -0.06
66 | O=C(CN1CCCCCC1)Nc1cccc(NCc2ccccn2)c1 | 5 | -0.58

Row | SMILES | % Inhibition [%] | Z score
67 | CCc1onc(C)c1[C@@H]1CCCN1C(=O)NCC(C)C | -14 | 2.11
68 | COc1ccc(F)cc1C(=O)N1C[C@H]2CCC[C@@H](C2)C1 | -14 | 2.42
69 | CN(C)C[C@H]1CN(Cc2nc3ccccc3o2)CCO1 | 1 | -0.21
70 | CCN1CCN(C(=O)c2ccc3c(c2)nc2n3CCN(Cc3ccccc3)C2=O)CC1 | -7 | 0.86
71 | Cc1nn(CN(C)Cc2cnn(C)c2)c(C)c1Br | -11 | 1.42
72 | CCn1cnnc1CNC(=O)c1cccc(C)n1 | 12 | -1.62
73 | CCc1nsc(N2CC(C)N(CC#N)C(C)C2)n1 (configuration not stated) | -3 | 0.45
74 | CC1CN(Cc2ccccn2)CCC1NC(=O)Nc1ccccc1 (configuration not stated) | -1 | 0.15
75 | CC(O)CCNC(=O)NC1CCC(C)C(C)C1 (configuration not stated) | -16 | 2.03
76 | N#Cc1c(N)nc2c(C(=O)Nc3ccccc3Cl)c(Nc3ccccc3)sc2c1-c1ccccc1 | 32 | -3.66
77 | CC(=O)[C@H]1CCN(C(=O)c2c[nH]c3ccccc23)C1 | -13 | 2.41
78 | COc1cc2c(cc1O)NC(=O)C[C@H]2c1cccnc1OC | -11 | 2.05
79 | O=C(O)CCCCNC(=O)OCc1ccccc1 | -5 | 0.81
80 | CC(=O)c1ccccc1-c1ccc2ncnc(NCCO)c2c1 | -8 | 1.13
81 | COCCCNC(=O)CN1C(=O)c2ccccc2Oc2ncccc21 | -18 | 1.89
82 | Cc1cc(N2CCN(Cc3ccc(Cl)cc3)CC2)c2nncn2n1 | -2 | 0.2
83 | CCN(CC)S(=O)(=O)c1ccc(NC(=O)CON=C(N)c2cnn(C)c2)cc1 | -5 | 0.71
84 | O=C(CCc1cn2ccccc2n1)N1Cc2cnn(CCO)c2C1 | -15 | 2.67
85 | N#CCN1CCC[C@H]1c1nc2ccccc2s1 | -12 | 1.88
86 | COc1cc(-c2nccn2CCc2cccs2)cc2c1OCO2 | 9 | -1.72

Reference: ChEMBL document CHEMBL4888484, “Replenishing the malaria drug discovery pipeline: Screening and hit evaluation of the MMV Hit Generation Library 1 (HGL1) against asexual blood stage Plasmodium falciparum ,using a nano luciferase reporter read-out” (2022)
